# The full ranking holds about 81,000 sequences; the median of “one-hybrid fitness for binding parS DNA” is about -0.17, and the highest 2% start at about 0.51. This is one part of the list.
# B1: Caulobacter ParB omega fusion; a variant is named by its letters at X, in order, B8GW30 (parent)
# chain: MESVVVGEPGMSEGRRGLGRGLSALLGEVDAAPAQAPGEQLGGSREAPIEILQRNPDQPRRTFREEDLEDLSNSIREKGVLQPILVRPSPDTAGEYQIVAGERAWRAAQRAGLKTVPIMVRELDDLAVLEIGIIENVQRADLNVLEEALSYKVLMEKFERTQENIAQTIGKSXSHVANXMRLLXLPDEVQSYLVSGELTAXHARAIAAAADPVALAKQIIEGGLSVRETEALARKAPNLSAGKSKGGRPPRVKDTDTQALESDLSSVLGLDVSIDHRGSTGTLTITYATLEQLDDLCNRLTRGI
# Variants of: B1
# Test: one-hybrid fitness for binding parS DNA (scaled: cognate 1, non-cognate 0); higher = stronger binding
# Details: with parS DNA site
# Procedure, shortened: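 Fitness here means the log change in variant-to-wild-type read ratio between plasmids sequenced before and after selection. That scale was set so cognate equals 1 and non-cognate equals 0. The selection was a bacterial one-hybrid screen of Caulobacter ParB libraries, four specificity codons randomised, in E. coli USO carrying a HIS3 reporter with the site 19 bp from the promoter, grown 48 hours at 37°C on M9-minus-histidine with 0.1 mM IPTG and 5 mM 3-AT.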
row,Variant,one-hybrid fitness for binding parS DNA
1,IYRA,≤ 0.2
2,CPTL,≤ 0.2
3,ILIR,≤ 0.2
4,RWVS,0.616
5,ITGA,≤ 0.2
6,ACIR,≤ 0.2
7,AYHC,≤ 0.2
8,PKSC,≤ 0.2
9,PIAD,≤ 0.2
10,QPVN,≤ 0.2
11,PSFS,≤ 0.2
12,QGFS,≤ 0.2
13,SWSY,≤ 0.2
14,NWWR,≤ 0.2
15,AYSK,≤ 0.2
16,KEGR,≤ 0.2
17,LARS,≤ 0.2
18,DVWE,≤ 0.2
19,ATGP,≤ 0.2
20,YWSG,≤ 0.2
21,FYAT,≤ 0.2
22,RAQT,0.894
23,HDCY,≤ 0.2
24,CDHV,≤ 0.2

row,Variant,one-hybrid fitness for binding parS DNA
1,HDPQ,≤ 0.2
2,CPWT,≤ 0.2
3,GKLH,≤ 0.2
4,RAVW,0.203
5,GDRS,≤ 0.2
6,TRNW,≤ 0.2
7,ALKP,≤ 0.2
8,TWLT,≤ 0.2
9,TKVR,≤ 0.2
10,YRDG,≤ 0.2
11,PIPY,≤ 0.2
12,PVHK,≤ 0.2
13,ASAT,≤ 0.2
14,HIRT,≤ 0.2
15,LHWC,≤ 0.2
16,RYPR,≤ 0.2
17,TNLC,≤ 0.2
18,YGGT,≤ 0.2
19,PYHC,≤ 0.2
20,VVAY,≤ 0.2
21,AVKW,≤ 0.2
22,QNED,≤ 0.2
23,INMG,≤ 0.2
24,SRYE,≤ 0.2

row,Variant,one-hybrid fitness for binding parS DNA
1,MARG,≤ 0.2
2,LSGW,≤ 0.2
3,RYVV,≤ 0.2
4,TARR,≤ 0.2
5,PNQM,≤ 0.2
6,NYHK,≤ 0.2
7,LAGV,≤ 0.2
8,GLTC,≤ 0.2
9,PTIV,≤ 0.2
10,YLAK,≤ 0.2
11,CVCR,≤ 0.2
12,TSFA,≤ 0.2
13,KMTC,≤ 0.2
14,HSGV,≤ 0.2
15,IGTG,≤ 0.2
16,SGDR,≤ 0.2
17,DNCG,≤ 0.2
18,RVCD,≤ 0.2
19,VSRA,≤ 0.2
20,RKVV,≤ 0.2
21,GTGV,≤ 0.2
22,FAST,≤ 0.2
23,RSKY,0.609
24,ILCG,≤ 0.2

row,Variant,one-hybrid fitness for binding parS DNA
1,SMDT,≤ 0.2
2,ILKL,≤ 0.2
3,LHDV,≤ 0.2
4,CLVG,≤ 0.2
5,PQEL,≤ 0.2
6,FHCS,≤ 0.2
7,SSSF,≤ 0.2
8,EGRH,≤ 0.2
9,ITES,≤ 0.2
10,VRGL,≤ 0.2
11,QWPE,≤ 0.2
12,QMQL,≤ 0.2
13,PYTV,≤ 0.2
14,KTYR,≤ 0.2
15,VMRR,≤ 0.2
16,YSST,≤ 0.2
17,YHGF,≤ 0.2
18,YRPP,≤ 0.2
19,DGTT,≤ 0.2
20,RKQT,0.729
21,QKAS,≤ 0.2
22,KVSI,≤ 0.2
23,RWYD,≤ 0.2
24,RIHA,0.574

row,Variant,one-hybrid fitness for binding parS DNA
1,WMFS,≤ 0.2
2,HIFG,≤ 0.2
3,TDIG,≤ 0.2
4,QAWK,≤ 0.2
5,HSPM,≤ 0.2
6,PLSI,≤ 0.2
7,QSDT,≤ 0.2
8,SQPY,≤ 0.2
9,DTRD,≤ 0.2
10,NKPY,≤ 0.2
11,MSWR,≤ 0.2
12,TILR,≤ 0.2
13,PDGM,≤ 0.2
14,VRVY,≤ 0.2
15,PSRE,≤ 0.2
16,YETW,≤ 0.2
17,YYDS,≤ 0.2
18,SCHL,≤ 0.2
19,RYAI,≤ 0.2
20,TTYA,≤ 0.2
21,QGHR,≤ 0.2
22,CIDS,≤ 0.2
23,QNTR,≤ 0.2
24,EQKR,≤ 0.2

row,Variant,one-hybrid fitness for binding parS DNA
1,APVW,≤ 0.2
2,MDNS,≤ 0.2
3,TYWS,≤ 0.2
4,DRPM,≤ 0.2
5,WQLY,≤ 0.2
6,TEKV,≤ 0.2
7,IYTN,≤ 0.2
8,NQIS,≤ 0.2
9,SSHC,≤ 0.2
10,TMQE,≤ 0.2
11,NKTL,≤ 0.2
12,GYMT,≤ 0.2
13,HANS,≤ 0.2
14,PPYR,≤ 0.2
15,LHCL,≤ 0.2
16,HNVL,≤ 0.2
17,YDLI,≤ 0.2
18,RNSK,≤ 0.2
19,GCKE,≤ 0.2
20,QQPQ,≤ 0.2
21,FGRH,≤ 0.2
22,VQLW,≤ 0.2
23,PYKQ,≤ 0.2
24,SRRW,≤ 0.2

row,Variant,one-hybrid fitness for binding parS DNA
1,RGSH,≤ 0.2
2,DAMD,≤ 0.2
3,TFYE,≤ 0.2
4,TTCC,≤ 0.2
5,SAPK,≤ 0.2
6,SYFM,≤ 0.2
7,GMNL,≤ 0.2
8,PHTP,≤ 0.2
9,RNDL,≤ 0.2
10,NHHK,≤ 0.2
11,YFYM,≤ 0.2
12,QNLE,≤ 0.2
13,MPPW,≤ 0.2
14,EGLM,≤ 0.2
15,FPVL,≤ 0.2
16,GHST,≤ 0.2
17,KAEG,≤ 0.2
18,IWTI,≤ 0.2
19,RGRN,0.341
20,MTHV,≤ 0.2
21,SVSG,≤ 0.2
22,MSPK,≤ 0.2
23,VVPT,≤ 0.2
24,TGIG,≤ 0.2

row,Variant,one-hybrid fitness for binding parS DNA
1,VHLY,≤ 0.2
2,CVTR,≤ 0.2
3,RHQD,≤ 0.2
4,MHLG,≤ 0.2
5,ENYE,≤ 0.2
6,CIWS,≤ 0.2
7,FTQL,≤ 0.2
8,FRQR,≤ 0.2
9,ENVR,≤ 0.2
10,VPEL,≤ 0.2
11,MRFS,≤ 0.2
12,RQRR,≤ 0.2
13,QYGY,≤ 0.2
14,EITT,≤ 0.2
15,HAIF,≤ 0.2
16,KDPS,≤ 0.2
17,YRES,≤ 0.2
18,ATAN,≤ 0.2
19,NHNE,≤ 0.2
20,NERR,≤ 0.2
21,MARY,≤ 0.2
22,WMTM,≤ 0.2
23,TRVY,≤ 0.2
24,AKHC,≤ 0.2

row,Variant,one-hybrid fitness for binding parS DNA
1,IMRL,≤ 0.2
2,LTTG,≤ 0.2
3,NAER,≤ 0.2
4,QVNI,≤ 0.2
5,TIKD,≤ 0.2
6,QNWS,≤ 0.2
7,GTTG,≤ 0.2
8,SFLV,≤ 0.2
9,SFKG,≤ 0.2
10,CTHM,≤ 0.2
11,DYRN,≤ 0.2
12,NRPY,≤ 0.2
13,TWEM,≤ 0.2
14,SSFS,≤ 0.2
15,QRRY,≤ 0.2
16,NTHC,≤ 0.2
17,FRNK,≤ 0.2
18,RNHV,≤ 0.2
19,MNKS,≤ 0.2
20,PQHR,≤ 0.2
21,NYVI,≤ 0.2
22,EMKS,≤ 0.2
23,CCVG,≤ 0.2
24,WKGT,≤ 0.2

row,Variant,one-hybrid fitness for binding parS DNA
1,YEVS,≤ 0.2
2,APFF,≤ 0.2
3,LAGH,≤ 0.2
4,QSHA,≤ 0.2
5,RYMA,0.553
6,CTLN,≤ 0.2
7,WWPE,≤ 0.2
8,ENTI,≤ 0.2
9,YEDS,≤ 0.2
10,LFDS,≤ 0.2
11,YLCS,≤ 0.2
12,HTET,≤ 0.2
13,SYLC,≤ 0.2
14,VYPS,≤ 0.2
15,QYNI,≤ 0.2
16,SYWY,≤ 0.2
17,TGLS,≤ 0.2
18,WNHG,≤ 0.2
19,KAAM,≤ 0.2
20,NTYR,≤ 0.2
21,PSQL,≤ 0.2
22,VKCA,≤ 0.2
23,TKYI,≤ 0.2
24,WQDR,≤ 0.2

row,Variant,one-hybrid fitness for binding parS DNA
1,EMMR,≤ 0.2
2,FCQC,≤ 0.2
3,PHCY,≤ 0.2
4,SIKD,≤ 0.2
5,VVTQ,≤ 0.2
6,WTPH,≤ 0.2
7,RWCN,≤ 0.2
8,HHRV,≤ 0.2
9,MGKC,≤ 0.2
10,VSTL,≤ 0.2
11,PIDG,≤ 0.2
12,AYLG,≤ 0.2
13,RPQD,≤ 0.2
14,RDYR,≤ 0.2
15,HGNW,≤ 0.2
16,FDNC,≤ 0.2
17,LCKY,≤ 0.2
18,CGGV,≤ 0.2
19,RSAT,0.869
20,QCMK,≤ 0.2
21,LQTS,≤ 0.2
22,PIVR,≤ 0.2
23,TTCS,≤ 0.2
24,ASRY,≤ 0.2

row,Variant,one-hybrid fitness for binding parS DNA
1,AMPM,≤ 0.2
2,VARE,≤ 0.2
3,SEKY,0.242
4,TMKN,≤ 0.2
5,SMYK,≤ 0.2
6,AFTT,≤ 0.2
7,YARA,≤ 0.2
8,HNAG,≤ 0.2
9,SGKG,≤ 0.2
10,PACA,≤ 0.2
11,RWEY,≤ 0.2
12,IENT,≤ 0.2
13,WMLA,≤ 0.2
14,SAKA,≤ 0.2
15,QVYI,≤ 0.2
16,QNTD,≤ 0.2
17,ELPE,≤ 0.2
18,GCNC,≤ 0.2
19,HDLC,≤ 0.2
20,IQDT,≤ 0.2
21,ATCF,≤ 0.2
22,CLYL,≤ 0.2
23,LDMK,≤ 0.2
24,IYTT,≤ 0.2

row,Variant,one-hybrid fitness for binding parS DNA
1,LDTV,≤ 0.2
2,EFAS,≤ 0.2
3,ENHC,≤ 0.2
4,GNSW,≤ 0.2
5,PYWI,≤ 0.2
6,ENWC,≤ 0.2
7,SENF,≤ 0.2
8,SNGS,≤ 0.2
9,QYQS,≤ 0.2
10,IFWT,0.24
11,GPCT,≤ 0.2
12,STCF,≤ 0.2
13,NDTC,≤ 0.2
14,SAAD,≤ 0.2
15,TMPY,≤ 0.2
16,RSIF,≤ 0.2
17,YYQS,≤ 0.2
18,CSII,≤ 0.2

# Reference: a collection of fitness landscapes (doi:10.1016/j.celrep.2020.107928)
